Laboratory results taken from paper PMC3936849.
These are yes or no findings as the source states them, for the method shown. Some results given as binding are weak or reduced against the parent protein; the word gives no strength. For some assays here: Sequences can lack the tags named with a protein.

The chains behind the UniProt entries cited, without tags or fusion partners. Where a name states a change or a piece, a line headed by the entry shows the natural chain unless it says otherwise. Residues count along the entry.
UniProt P37023, residues 22-118: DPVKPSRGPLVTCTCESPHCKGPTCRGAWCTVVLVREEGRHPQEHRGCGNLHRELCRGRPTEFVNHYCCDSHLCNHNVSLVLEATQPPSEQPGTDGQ
UniProt P27037: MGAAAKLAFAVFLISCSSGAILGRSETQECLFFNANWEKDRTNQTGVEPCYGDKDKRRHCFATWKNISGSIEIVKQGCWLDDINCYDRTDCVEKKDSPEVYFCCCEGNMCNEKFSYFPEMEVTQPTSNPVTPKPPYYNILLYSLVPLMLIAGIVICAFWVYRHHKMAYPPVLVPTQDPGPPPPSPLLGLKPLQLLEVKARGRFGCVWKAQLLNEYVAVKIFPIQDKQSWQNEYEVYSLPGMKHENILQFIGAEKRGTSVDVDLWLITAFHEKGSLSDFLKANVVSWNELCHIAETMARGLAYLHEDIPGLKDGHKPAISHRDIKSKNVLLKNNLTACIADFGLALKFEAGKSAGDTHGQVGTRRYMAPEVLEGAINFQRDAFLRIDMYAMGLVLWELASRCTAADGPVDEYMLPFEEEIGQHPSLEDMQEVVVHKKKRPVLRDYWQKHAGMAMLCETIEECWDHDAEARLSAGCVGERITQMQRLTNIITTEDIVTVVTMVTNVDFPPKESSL
UniProt P36896, residues 24-126: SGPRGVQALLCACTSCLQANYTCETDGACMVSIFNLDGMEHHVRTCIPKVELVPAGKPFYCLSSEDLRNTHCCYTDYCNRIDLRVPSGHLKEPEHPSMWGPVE
UniProt P36894, residues 24-152: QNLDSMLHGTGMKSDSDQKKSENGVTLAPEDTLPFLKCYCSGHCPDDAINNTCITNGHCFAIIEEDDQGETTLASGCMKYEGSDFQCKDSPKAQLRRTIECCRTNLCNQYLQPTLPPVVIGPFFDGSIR

What was measured:
Test in all cases: SPR; BIAcore 3000, 25°C; ECD-Fc proteins (in 10 mM Na-acetate, pH 4.0) captured on CM5 chip to ~1,000 response units; MB109 injected in 2-fold dilutions from 20 to 0.3 nM in 10 mM HEPES pH 7.4, 150 mM NaCl, 3.4 mM EDTA, 0.005% Tween-20; global 1:1 Langmuir binding with mass transfer model; both purified
[1] = molecular target: ALK1 extracellular domain, C-terminal Fc-tagged chimera (UniProt P37023)
[2] = molecular target: T1, ALK7 extracellular domain, C-terminal Fc-tagged chimera (UniProt Q8NER5)
T1 sequence: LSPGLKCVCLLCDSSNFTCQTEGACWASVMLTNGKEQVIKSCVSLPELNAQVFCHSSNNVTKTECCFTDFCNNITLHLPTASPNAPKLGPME

[3] = molecular target: ActRIIa extracellular domain, C-terminal Fc-tagged chimera (UniProt P27037)
[4] = molecular target: T2, ActRIIb extracellular domain, C-terminal Fc-tagged chimera (UniProt Q13705)
T2 sequence: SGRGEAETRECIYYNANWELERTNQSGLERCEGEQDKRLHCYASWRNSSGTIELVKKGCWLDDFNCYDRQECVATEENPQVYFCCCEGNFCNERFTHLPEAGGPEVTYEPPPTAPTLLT

[5] = molecular target: T3, ActRIa (ALK2) extracellular domain, C-terminal Fc-tagged chimera (UniProt Q04771)
T3 sequence: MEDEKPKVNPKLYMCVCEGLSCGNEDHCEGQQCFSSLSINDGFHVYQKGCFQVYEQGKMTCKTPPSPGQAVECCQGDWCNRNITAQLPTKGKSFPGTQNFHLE

[6] = molecular target: ActRIb (ALK4) extracellular domain, C-terminal Fc-tagged chimera (UniProt P36896)
[7] = molecular target: T4, BMPRII extracellular domain, C-terminal Fc-tagged chimera (UniProt Q13873)
T4 sequence: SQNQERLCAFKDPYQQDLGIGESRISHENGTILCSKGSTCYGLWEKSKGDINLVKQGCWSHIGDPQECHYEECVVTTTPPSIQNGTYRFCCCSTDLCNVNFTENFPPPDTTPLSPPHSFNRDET

[8] = molecular target: BMPRIa (ALK3) extracellular domain, C-terminal Fc-tagged chimera (UniProt P36894)
[9] = molecular target: T5, BMPRIb (ALK6) extracellular domain, C-terminal Fc-tagged chimera (UniProt O00238)
T5 sequence: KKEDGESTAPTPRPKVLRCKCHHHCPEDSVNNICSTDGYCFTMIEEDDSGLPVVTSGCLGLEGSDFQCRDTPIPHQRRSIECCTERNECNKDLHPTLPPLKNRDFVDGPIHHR

[10] = molecular target: T6, MISRII extracellular domain, C-terminal Fc-tagged chimera (UniProt Q16671)
T6 sequence: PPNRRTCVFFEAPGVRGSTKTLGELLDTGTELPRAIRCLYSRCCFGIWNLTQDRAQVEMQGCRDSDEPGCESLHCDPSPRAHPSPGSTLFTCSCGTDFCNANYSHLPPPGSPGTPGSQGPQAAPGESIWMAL

[11] = molecular target: T7, TGFβRI (ALK5) extracellular domain, C-terminal Fc-tagged chimera (UniProt P36897)
T7 sequence: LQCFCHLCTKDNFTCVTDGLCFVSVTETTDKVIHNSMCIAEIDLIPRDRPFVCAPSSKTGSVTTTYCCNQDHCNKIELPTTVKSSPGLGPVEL

binding [1]: binds
binding [3]: binds weakly
binding [4]: binds
binding [7]: binds
B1: MB109 (E. coli-derived mature domain of human bone morphogenetic protein-9, refolded functional dimer) (ligand, UniProt Q9UK05 320-429)
chain: MSAGAGSHCQKTSLRVNFEDIGWDSWIIAPKEYEAYECKGGCFFPLADDVTPTKHAIVQTLVHLKFPTKVGKACCVPTKLSPISVLYKDDMGVPTLKYHYEGMSVAECGCR
binding [2]: no binding (tested: 20 nM (tested from 20 to 0.3 nM))
binding [5]: no binding (tested: 20 nM (tested from 20 to 0.3 nM))
binding [6]: no binding (tested: 20 nM (tested from 20 to 0.3 nM))
binding [8]: no binding (tested: 20 nM (tested from 20 to 0.3 nM))
binding [9]: no binding (tested: 20 nM (tested from 20 to 0.3 nM))
binding [10]: no binding (tested: 20 nM (tested from 20 to 0.3 nM))
binding [11]: no binding (tested: 20 nM (tested from 20 to 0.3 nM))
